Data taken from patent US20200002439A1 (GENSUN BIOPHARMA, published 2020).
Each block holds one binder with its values, some of them ahead of it.

Assays:
[1] = target: human TGFβ1 (human, UniProt P01137 fragment); test: cell-based or functional assay
[2] = target: T1, recombinant human VEGF 165 (human, UniProt P15692-4 27-191); test: blocking ELISA: VEGF-165 coated on the plate, binding of recombinant human VEGFR-2-hu IgG1-His Tag is blocked
T1 construct: Bought protein
T1 sequence (looked up): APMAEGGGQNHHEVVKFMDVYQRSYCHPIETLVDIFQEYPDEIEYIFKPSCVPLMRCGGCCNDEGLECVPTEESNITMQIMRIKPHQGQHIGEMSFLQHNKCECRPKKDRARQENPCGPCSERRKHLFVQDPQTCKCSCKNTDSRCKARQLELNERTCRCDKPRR
Procedure: Briefly, 0.5 ug/ml of recombinant human VEGF-165 (R&D #293-VE-050/CF) in carbonate-bicarbonate buffer was coated to the wells in a 96-well assay plate and incubated overnight at 4° C. The wells were then washed 3 times with 0.05% Tween 20 in PBS (wash buffer), blocked with 1% BSA in PBS for 1 hour at room temperature, and washed 3 times with wash buffer. 50 μl 5-fold serially diluted antibodies were then added to wells in the plate and incubated for 30 minutes at room temperature. […] 100 μl anti-His tag HRP (1:10,000) was then added and the plates were incubated for 40 mins at room temperature and washed 3 times with wash buffer.

[3] = target: T2, human PD-L1 on transfected CHOK1 cells (human, UniProt Q9NZQ7); test: cell-based blocking assay (flow cytometry, iQue): FITC labeled human PD-1-Fc binding to human PD-L1 transfected CHOK1 cells, antibody titrated
T2 construct: also called Human PD-L1 transfected CHOK1 cells

[4] = target: T1, recombinant human VEGF 165; test: cell-based or functional assay
[5] = target: T1, recombinant human VEGF 165; test: cell-based or functional assay; remark: listed apart in the source

T2 sequence (Q9NZQ7 19-290 limits assumed): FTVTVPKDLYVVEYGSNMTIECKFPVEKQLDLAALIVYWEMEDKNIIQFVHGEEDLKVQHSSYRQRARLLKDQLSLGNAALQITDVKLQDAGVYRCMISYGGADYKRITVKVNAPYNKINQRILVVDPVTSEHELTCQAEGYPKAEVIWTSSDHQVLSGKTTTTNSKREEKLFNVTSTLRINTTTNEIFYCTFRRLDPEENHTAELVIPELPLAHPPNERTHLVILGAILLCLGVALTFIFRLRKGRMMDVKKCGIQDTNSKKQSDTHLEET
human TGFβ1, sequence (P01137 279-390 limits assumed): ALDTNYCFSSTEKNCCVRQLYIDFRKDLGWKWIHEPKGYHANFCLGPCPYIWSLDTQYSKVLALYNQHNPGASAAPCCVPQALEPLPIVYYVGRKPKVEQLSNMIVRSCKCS

- IC50; luciferase signal of TGFβ/SMAD SBE Reporter-HEK293 cells stimulated with human TGFβ1 [1]: 110 pM
- IC50 [2]: 1570 pM
B1: TS-ZPLB-1 (other)
heavy: SDTGRPFVEMYSEIPEIIHMTEGRELVIPCRVTSPNITVTLKKFPLDTLIPDGKRIIWDSRKGFIISNATYKEIGLLTCEATVNGHLYKTNYLTHRQTNTIIDVVLSPSHGIELSVGEKLVLNCTARTELNVGIDFNWEYPSSKHQHKKLVNRDLKTQSGSEMKKFLSTLTIDGVTRSDQGLYTCAASSGLMTKKNSTFVRVHEKGGGGSGGGGSGGGGSQVQLVQSGAEVKKPGASVKVSCKASGYTFTSYWMHWVRQAPGQGLEWMGMIHPNSGGNNYNEKFKSRVTMTRDTSISTAYMELSRLRSDDTAVYYCARSWYGSSPYYFDYWGQGTLVTVSSASTKGPSVFPLAPCSRSTSESTAALGCLVKDYFPEPVTVSWNSGALTSGVHTFPAVLQSSGLYSLSSVVTVPSSSLGTKTYTCNVDHKPSNTKVDKRV[human IgG4 Fc with S228P (EU numbers) left out]GGGGSGGGGSGGGGSIPPHVQKSVNNDMIVTDNNGAVKFPQLCKFCDVRFSTCDNQKSCMSNCSITSICEKPQEVCVAVWRKNDENITLETVCHDPKLPYHDFILEDAASPKCIMKEKKKPGETFFMCSCSSDECNDNIIFSEEYNTSNPD
light: DIQMTQSPSSLSASVGDRVTISCRASQDIDNYLNWYQQKPGKAPKLLIKYTSRLHSGVPSRFSGSGSGTDFTLTISSLQPEDFATYFCQQGYTLPWTFGGGTKVEIKRTVAAPSVFIFPPSDEQLKSGTASVVCLLNNFYPREAKVQWKVDNALQSGNSQESVTEQDSKDSTYSLSSTLTLSKADYEKHKVYACEVTHQGLSSPVTKSFNRGEC

- IC50 [3]: 3300 pM
B2: Bi-ZPL-1 (bispecific antibody, human IgG4 S228P, kappa)
heavy: SDTGRPFVEMYSEIPEIIHMTEGRELVIPCRVTSPNITVTLKKFPLDTLIPDGKRIIWDSRKGFIISNATYKEIGLLTCEATVNGHLYKTNYLTHRQTNTIIDVVLSPSHGIELSVGEKLVLNCTARTELNVGIDFNWEYPSSKHQHKKLVNRDLKTQSGSEMKKFLSTLTIDGVTRSDQGLYTCAASSGLMTKKNSTFVRVHEKGGGGSGGGGSGGGGSQVQLVQSGAEVKKPGASVKVSCKASGYTFTSYWMHWVRQAPGQGLEWMGMIHPNSGGNNYNEKFKSRVTMTRDTSISTAYMELSRLRSDDTAVYYCARSWYGSSPYYFDYWGQGTLVTVSSASTKGPSVFPLAPCSRSTSESTAALGCLVKDYFPEPVTVSWNSGALTSGVHTFPAVLQSSGLYSLSSVVTVPSSSLGTKTYTCNVDHKPSNTKVDKRV[human IgG4 Fc with S228P (EU numbers) left out]
light: B1 light
notes: also called TS-ZPL-1; Bi-ZPL-1 molecules

- IC50 (read off the curve) [4]: ~200 pM
- IC50 (VEGF-induced luciferase signal, cell based VEGF neutralization assay on VEGFR-2 reporter cells) [5]: 180 pM
B3: Bi-ZPL-3 (bispecific antibody, human IgG1, kappa)
heavy: QVQLVQSGAEVKKPGASVKVSCKASGYTFTSYWMHWVRQAPGQGLEWMGMIHPNSGGNNYNEKFKSRVTMTRDTSISTAYMELSRLRSDDTAVYYCARSWYGSSPYYFDYWGQGTLVTVSSASTKGPSVFPLAPSSKSTSGGTAALGCLVKDYFPEPVTVSWNSGALTSGVHTFPAVLQSSGLYSLSSVVTVPSSSLGTQTYICNVNHKPSNTKVDKRV[human IgG1 Fc left out]GGGGSGGGGSGGGGSGGGGSSDTGRPFVEMPSEIPEIIHMTEGRELVIPCRVTSPEITVTLKKFPLDTLIPDGKRIIWDSRKGFIISEATYKEIGLLTCEATVNGHLYKTNYLTHRQTNTIIDVVLSPSHGIELSVGEKLVLECTARTELNVGIDFNWEYPSSKHQHKKLVNRDLKTQSGSEMKKFLSTLTIDGVTRSDQGLYTCAASSGLMTKKESTFVRVHEK
light: B1 light
